The record followed here is article PMC4336329 (PLoS ONE, 2015).

Screen size: about 310,000 compounds; about 14,000 (4.5%) showed an effect of 50% or more. The effect is printed as a negative number. Some of the results follow.
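Also: peak tail current of the secondary pulse compared with the same well before compound.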

This test deals with human ether-à-go-go-related gene (hERG) potassium channel (human, UniProt Q12809). As to the kind of experiment: primary screen, population patch clamp on CHO cells stably expressing hERG.
Sequence of human ether-à-go-go-related gene (hERG) potassium channel (Q12809 whole entry, looked up): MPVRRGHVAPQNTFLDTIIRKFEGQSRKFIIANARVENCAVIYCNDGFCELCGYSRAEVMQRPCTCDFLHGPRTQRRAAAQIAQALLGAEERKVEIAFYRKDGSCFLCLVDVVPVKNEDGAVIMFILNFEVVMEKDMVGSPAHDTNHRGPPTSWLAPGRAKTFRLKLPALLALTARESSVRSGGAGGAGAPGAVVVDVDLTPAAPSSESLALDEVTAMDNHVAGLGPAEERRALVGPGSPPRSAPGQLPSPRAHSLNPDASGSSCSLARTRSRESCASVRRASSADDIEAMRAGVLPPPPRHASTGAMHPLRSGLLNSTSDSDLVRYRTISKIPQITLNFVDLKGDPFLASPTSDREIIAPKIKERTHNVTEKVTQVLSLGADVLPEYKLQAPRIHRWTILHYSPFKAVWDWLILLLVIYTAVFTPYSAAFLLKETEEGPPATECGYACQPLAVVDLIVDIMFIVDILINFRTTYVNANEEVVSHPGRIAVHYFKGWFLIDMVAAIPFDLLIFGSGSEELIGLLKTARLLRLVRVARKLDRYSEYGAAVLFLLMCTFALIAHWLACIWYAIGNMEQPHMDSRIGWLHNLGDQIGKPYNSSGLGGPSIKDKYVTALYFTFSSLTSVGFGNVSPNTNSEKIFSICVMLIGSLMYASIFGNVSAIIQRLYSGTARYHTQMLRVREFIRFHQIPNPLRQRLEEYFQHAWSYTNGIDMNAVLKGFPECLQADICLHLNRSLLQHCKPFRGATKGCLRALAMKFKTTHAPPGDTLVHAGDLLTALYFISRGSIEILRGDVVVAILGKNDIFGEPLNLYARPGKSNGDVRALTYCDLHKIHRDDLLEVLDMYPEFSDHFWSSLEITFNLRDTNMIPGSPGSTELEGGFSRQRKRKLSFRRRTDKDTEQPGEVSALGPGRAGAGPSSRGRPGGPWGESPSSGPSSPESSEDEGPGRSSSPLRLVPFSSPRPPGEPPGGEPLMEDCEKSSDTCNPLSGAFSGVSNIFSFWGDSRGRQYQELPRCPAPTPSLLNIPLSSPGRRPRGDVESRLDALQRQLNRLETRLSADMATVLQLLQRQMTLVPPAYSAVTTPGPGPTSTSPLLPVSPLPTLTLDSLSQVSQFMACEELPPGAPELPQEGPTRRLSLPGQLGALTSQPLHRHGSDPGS
With `CC1CN(S(=O)(=O)c2ccc(NC(=O)c3cc(-c4ccccc4O)n[nH]3)cc2)CC(C)O1` (stereo not drawn), the “hERG current change (%, negative = inhibition) at 10uM” value was determined as 17.5%.
For `CCc1nn(CC(=O)NCCc2ccc(Cl)cc2)c(=O)c2cccn12`, the “hERG current change (%, negative = inhibition) at 10uM” value is -19.2%.
The result for `COc1cccc(/C=N/NC(=O)c2ccc(=O)n(C)c2)c1OC` reads 3.32%; that for `Nc1c(Cl)c(Cl)nc(C(=O)OCC(=O)NCc2ccccc2)c1Cl`, -18.2%; that for `COC(C)(C)[C@]12CC(O)(C(C)C)ON1[C@H]1CCCCC1N2O` (stereo partly drawn), 7.35%.
With `O=C(NCc1ccc(F)cc1)C(=O)Nc1nc(C23CC4CC(CC(C4)C2)C3)cs1`, the “hERG current change (%, negative = inhibition) at 10uM” value is given as -1.52%.
As for `CNC(=S)N(Cc1ccc2c(c1)OCO2)C1CC(=O)N(c2ccccc2)C1=O` (stereo not drawn), the “hERG current change (%, negative = inhibition) at 10uM” value is reported as -35.6%.
For the compound `O=C(CCNS(=O)(=O)c1cccc2nonc12)Nc1ccc(Cl)cc1`, the “hERG current change (%, negative = inhibition) at 10uM” value is -11.8%.
Take `C=CCN=Cc1sc2ccc(OCC)cc2c1O`: the “hERG current change (%, negative = inhibition) at 10uM” value is -6.39%.
The result for `Cc1csc2nc(CSc3nc4ccccc4o3)c(Br)n12` reads 7.03%; that for `Oc1ccc(-c2nc3ncccn3c2Nc2ccc3c(c2)OCCO3)cc1`, -3.32%; that for `O=C(CCC(=O)N1CCCC(Nc2ccccc2)C1)c1ccc(F)cc1` (stereo not drawn), -8.8%.
With `COCC(=O)N1CCC(Oc2ccc(C(=O)NCCc3ccncc3)cc2)CC1`, the “hERG current change (%, negative = inhibition) at 10uM” value worked out at 3.69%.
With `O=C(COC(=O)COc1ccc2c(c1)CCC2)Nc1ccccc1`, the “hERG current change (%, negative = inhibition) at 10uM” value was determined as 0.446%.
The result for `CCNC(=S)Nc1ccc(N2CCCCC2)cc1` reads 13.5%; that for `N#Cc1c(-c2cccs2)nc(SCC(=O)c2ccc(Br)cc2)[nH]c1=O`, 16.3%; that for `COc1cc(C(=O)c2nccc3cc(OC)c(OC)cc23)c([N+](=O)[O-])cc1OC`, -11.3%.
`O=C(COC(=O)c1cccc(S(=O)(=O)NCc2ccccc2)c1)Nc1ccccc1OC(F)F`: the “hERG current change (%, negative = inhibition) at 10uM” value amounted to 11.5%.
The result for `O=C(COC(=O)c1ccc[nH]c1=O)Nc1ccc2c(c1)OC(F)(F)O2` reads 25.8%.
Turning to `Oc1oc(-c2ccccc2)nc1/C=N/c1nccs1`, the “hERG current change (%, negative = inhibition) at 10uM” value worked out at 13.1%.
On to `Cc1ccc(SCC(=O)OCC(=O)N(CC(C)C)c2c(N)n(Cc3ccccc3)c(=O)[nH]c2=O)c(C)c1`, for which the “hERG current change (%, negative = inhibition) at 10uM” value was -13.1%.
With `C=CCn1c(CCNC(=O)c2cccs2)nnc1SCC(=O)Nc1cccc(C(C)=O)c1` the figure was 7.23%.
The result for `COc1ccc(NC(=O)Nc2ccc(OC)cc2)cc1` reads -7.76%; that for `Clc1ccc(-c2ccnc(-n3cccc3)n2)s1`, 30.7%; that for `O=C(Nc1ccc(Cl)cc1)C1c2cccc[n+]2CC(=O)N1Cc1ccc2c(c1)OCO2.[I-]` (stereo not drawn), -18.9%.
With `O=C(c1ccccc1)N(Cc1nc2ccccc2c(=O)[nH]1)C1CCCC1` the figure was 16.5%; with `Cc1ccc(CNC(=O)c2ccc[nH]2)cc1`, -5.08%; with `CCOc1ccc(NC(=O)CCC(=O)c2ccc(F)cc2)cc1`, 11.3%.
For `Cc1cc(C)c(S(=O)(=O)N2CCN(C(=O)N3CCOCC3)CC2)c(C)c1`, the “hERG current change (%, negative = inhibition) at 10uM” value is listed as 5.53%.
The result for `COC(=O)CC#N` reads 15.4%.
With `O=C(NCCCO)C(=O)c1c(-c2ccccc2)cc2ccccn12` the figure was 8.78%.
In the case of `CCn1c(SCC(=O)Nc2ccc(NC(C)=O)cc2)nnc1C1CC1`, the “hERG current change (%, negative = inhibition) at 10uM” value worked out at 17.8%.
The result for `CCOC(=O)c1c(C)n(C)c2ccc(OC)c([N+](=O)[O-])c12` reads 1.98%.
`Cc1ccc(-c2cc(C(=O)Nc3cnn(C45CC6CC(CC(C6)C4)C5)c3)no2)cc1`: the “hERG current change (%, negative = inhibition) at 10uM” value was 0.347%.
With `COc1cccc(/C=N/Nc2ncc(C(F)(F)F)cc2Cl)c1O`, the “hERG current change (%, negative = inhibition) at 10uM” value is listed as 36.1%.
With `COC(C/C=C/C(=O)[C@@H](C)OCc1ccccc1)OC` the figure was -29.6%; with `CCCc1c(C)nc2c(Br)cccc2c1Cl`, 9.59%.
`COC(=O)COn1c(SC(C)C)nc2ccccc2c1=O`: the “hERG current change (%, negative = inhibition) at 10uM” value is on record as -14.1%.
With `O=C1NC(NS(=O)(=O)c2ccccc2)(C(F)(F)F)C(=O)N1c1ccc(F)cc1` (stereo not drawn) the figure was 8.92%; with `Cn1ncc2c(Nc3ccc4ccccc4c3)ncnc21`, -26.3%.
With `O=c1oc(Nc2ccc(F)cc2)nc2ccccc12` the figure was 6.68%; with `O=S(=O)(c1ccc(Br)s1)N1CCN(CCOc2ccccc2)CC1`, -17.3%.
As for `COc1ccc(-c2c(C#N)c(N)nc3sc(C(=O)c4ccccc4)c(N)c23)cc1`, the “hERG current change (%, negative = inhibition) at 10uM” value is 9.65%.
With `CN(Cc1ccon1)C(=O)C1CCC(=O)N(Cc2ccc(Cl)cc2)C1` (stereo not drawn) the figure was -40.9%; with `COc1cccc(C(=O)Nc2cccc(C(=O)N3CCOCC3)c2)c1`, 4.92%.
The result for `Cc1c(NC(=O)C(C)OC(=O)CC2CC3CCC2C3)c(=O)n(-c2ccccc2)n1C` (stereo not drawn) reads -9.36%; that for `CCOC(=O)/C(C#N)=C/c1cn(CCC(=O)O)nc1-c1ccc(Cl)cc1`, 26%; that for `O=C(OCCOCCN=C1NS(=O)(=O)c2ccccc21)c1ccc(F)cc1`, 4.47%.
With `C(=C\c1ccccc1)/CSc1nnc(-c2ccccc2)n1Cc1ccco1` the figure was -74.7%.
Turning to `COc1ccc(OC)c(NC(=O)c2c(NC(=O)CNCc3ccco3)sc3c2CCC3)c1`, the “hERG current change (%, negative = inhibition) at 10uM” value is 8.51%.
With `Cc1ccc(CNc2nc3c([nH]2)c(=O)n(C)c(=O)n3C)cc1`, the “hERG current change (%, negative = inhibition) at 10uM” value is reported as -1.35%.
The result for `c1ccc2c(c1)nnn2-c1ncnc2sc3c(c12)CCCC3` reads -12.2%.
For `COc1cc(/C=C/C(=O)OCC(=O)NCc2ccco2)ccc1O`, the “hERG current change (%, negative = inhibition) at 10uM” value is given as 3.65%.
The result for `O=C(COC(=O)c1cccc(Cl)c1Cl)NC1CCCC1` reads 11.4%; that for `O=C(CN1CCN(c2ccc([N+](=O)[O-])cc2)CC1)Nc1nccs1`, -65.6%.
For `CCOC(=O)C1CCN(C(=O)c2ccc(N(C)S(=O)(=O)c3ccc(OC)cc3)cc2)CC1`, the “hERG current change (%, negative = inhibition) at 10uM” value was -49.8%.
Regarding `COc1cc(CCC(=O)OCC(=O)NCc2ccccc2)cc(OC)c1OC`, the “hERG current change (%, negative = inhibition) at 10uM” value turned out to be 13.4%.
